These results are taken from doi:10.1101/2024.11.06.622243, “The MRAP2 accessory protein directly interacts with melanocortin-3 receptor to enhance signaling” (bioRxiv, 2024).

Usually stoichiometry N stands for a count of units in the complex or per binding partner.

In the test the target is T1, HA-Halo-MRAP2 (human, UniProt Q96G30 1-205, CA-Sulfo646 dye on the Halo tag).
T1 construct: human melanocortin-2 receptor accessory protein 2 (MRAP2); pRK5 construct with an N-terminal signal peptide from rat mGluR2 before the tags; also called ss-HA-Halo-MRAP2; source: HEK293, transiently transfected, in lysate (LMNG-CHS); not shown: HA, N-terminal, kept; Halo, N-terminal, kept
T1 sequence (looked up): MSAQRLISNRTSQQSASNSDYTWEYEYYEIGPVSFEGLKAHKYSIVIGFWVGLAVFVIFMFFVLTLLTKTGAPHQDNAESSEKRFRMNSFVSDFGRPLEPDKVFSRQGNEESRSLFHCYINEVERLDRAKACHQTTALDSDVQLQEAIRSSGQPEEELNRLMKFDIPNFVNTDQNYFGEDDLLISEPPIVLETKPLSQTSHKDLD
The experiment in a line: single-molecule pull-down (SiMPull); two-colour SiMPull: HA-Halo-tagged bait (CA-Sulfo646) and FLAG-CLIP-tagged prey (BC-DY547) co-expressed in HEK293 cells (300 ng Halo and 600 ng CLIP plasmid), labelled before lysis in 0.5% LMNG/0.05% CHS, bait immobilised by biotinylated anti-HA antibody, co-localisation and photobleaching steps by TIRF. To be noted: partners not purified.

B1: FLAG-CLIP-MC3R (receptor, human, UniProt P41968 1-323, looked up)
chain: MNASCCLPSVQPTLPNGSEHLQAPFFSNQSSSAFCEQVFIKPEVFLSLGIVSLLENILVILAVVRNGNLHSPMYFFLCSLAVADMLVSVSNALETIMIAIVHSDYLTFEDQFIQHMDNIFDSMICISLVASICNLLAIAVDRYVTIFYALRYHSIMTVRKALTLIVAIWVCCGVCGVVFIVYSESKMVIVCLITMFFAMMLLMGTLYVHMFLFARLHVKRIAALPPADGVAPQQHSCMKGAVTITILLGVFIFCWAPFFLHLVLIITCPTNPYCICYTAHFNTYLVLIMCNSVIDPLIYAFRSLELRNTFREILCGCNGMNLG
modifications: BC-DY547 dye on the CLIP tag
notes: human melanocortin-3 receptor (MC3R); pRK5 construct with an N-terminal signal peptide from rat mGluR2 before the tags; also called ss-FLAG-CLIP-MC3R; source: HEK293, transiently transfected, in lysate (LMNG-CHS); not shown: FLAG, N-terminal, kept; CLIP, N-terminal, kept
For B1, the “stoichiometry N” value amounted to 1 MRAP2 per MC3R.
